These results are taken from article PMC4336329 (PLoS ONE, 2015).

Screen size: about 310,000 compounds; about 14,000 (4.5%) showed an effect of 50% or more. The effect is printed as a negative number. The list shows a part of the results.
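Note: peak tail current of the secondary pulse compared with the same well before compound.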

human ether-à-go-go-related gene (hERG) potassium channel, sequence (Q12809 whole entry, looked up): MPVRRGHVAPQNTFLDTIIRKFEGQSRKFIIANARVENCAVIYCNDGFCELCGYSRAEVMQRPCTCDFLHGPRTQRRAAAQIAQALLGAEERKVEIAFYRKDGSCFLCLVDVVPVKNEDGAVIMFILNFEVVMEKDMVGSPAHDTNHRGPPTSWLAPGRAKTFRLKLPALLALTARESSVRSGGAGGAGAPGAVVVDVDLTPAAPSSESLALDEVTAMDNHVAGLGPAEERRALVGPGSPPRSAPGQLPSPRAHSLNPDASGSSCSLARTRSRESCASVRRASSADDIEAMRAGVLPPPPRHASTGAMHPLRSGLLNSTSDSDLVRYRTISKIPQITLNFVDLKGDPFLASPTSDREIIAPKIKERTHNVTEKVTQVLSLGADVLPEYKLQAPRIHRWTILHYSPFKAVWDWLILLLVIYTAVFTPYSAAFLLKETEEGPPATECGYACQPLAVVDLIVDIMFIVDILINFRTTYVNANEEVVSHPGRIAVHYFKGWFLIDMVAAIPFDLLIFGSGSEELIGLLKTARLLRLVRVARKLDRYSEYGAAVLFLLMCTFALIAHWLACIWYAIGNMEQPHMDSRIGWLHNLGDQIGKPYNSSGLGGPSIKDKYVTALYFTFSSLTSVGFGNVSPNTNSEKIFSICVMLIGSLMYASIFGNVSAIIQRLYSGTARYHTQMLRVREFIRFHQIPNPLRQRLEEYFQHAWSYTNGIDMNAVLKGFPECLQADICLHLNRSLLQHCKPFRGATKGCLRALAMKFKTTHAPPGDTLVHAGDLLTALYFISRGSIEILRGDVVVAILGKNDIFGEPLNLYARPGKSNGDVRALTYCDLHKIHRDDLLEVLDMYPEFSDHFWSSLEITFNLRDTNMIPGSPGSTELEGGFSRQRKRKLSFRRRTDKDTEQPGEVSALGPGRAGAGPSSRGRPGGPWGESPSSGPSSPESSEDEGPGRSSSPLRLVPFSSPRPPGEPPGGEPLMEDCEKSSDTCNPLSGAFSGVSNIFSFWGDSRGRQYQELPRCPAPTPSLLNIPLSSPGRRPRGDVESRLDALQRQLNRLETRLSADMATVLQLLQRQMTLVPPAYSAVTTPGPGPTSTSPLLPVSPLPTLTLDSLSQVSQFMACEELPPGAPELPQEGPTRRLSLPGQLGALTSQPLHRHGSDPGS

This test addresses human ether-à-go-go-related gene (hERG) potassium channel (human, UniProt Q12809). As to the kind of experiment: primary screen, population patch clamp on CHO cells stably expressing hERG.
`Cc1nc(N(CCO)C2CCCCC2)c2nnn(Cc3ccccc3)c2n1`: the “hERG current change (%, negative = inhibition) at 10uM” value turned out to be 8.25%.

Regarding `CCc1c(C)nc2ncnn2c1N1CCCC(C(=O)Nc2ccc(NC(C)=O)cc2)C1` (stereo not shown), the “hERG current change (%, negative = inhibition) at 10uM” value was found to be 14.2%.

Turning to `CCc1cc(=O)oc2cc(C)cc(OCC(=O)N3CCC(C(=O)O)(c4ccccc4)CC3)c12`, the “hERG current change (%, negative = inhibition) at 10uM” value came out at 5.65%.

On to `COc1cc(C2=Nc3ccc(Br)cc3C(c3ccccc3)N2CC(=O)NN)cc(OC)c1OC` (stereo not shown), for which the “hERG current change (%, negative = inhibition) at 10uM” value is on record as -32.6%.

On to `O=C(c1cccnc1)N1CCN(C(=O)c2cccs2)CC1`, for which the “hERG current change (%, negative = inhibition) at 10uM” value is recorded as 9.53%.

On to `O=C(O)c1ccc(CN(Cc2ccccc2)S(=O)(=O)c2ccc(Cl)cc2)cc1`, for which the “hERG current change (%, negative = inhibition) at 10uM” value is recorded as -9.67%.

As for `COc1ccc(S(=O)(=O)Nc2ccccc2C(=O)NCc2ccco2)cc1Br`, the “hERG current change (%, negative = inhibition) at 10uM” value is -16.9%.

`CCOc1cc(NC(=S)NCCCN2CCOCC2)c(OCC)cc1NC(=O)c1cccs1`: the “hERG current change (%, negative = inhibition) at 10uM” value is on record as 10.8%.

For `CC1=C(C(=O)OCc2ccccc2)C(c2ccc(C(C)(C)C)cc2)NC(=O)N1CCCCCC(=O)O` (stereo not shown), the “hERG current change (%, negative = inhibition) at 10uM” value was -7.78%.

Consider `CC(=O)Nc1ccc(NC(=O)COc2ncnc3ccccc23)cc1`, for which the “hERG current change (%, negative = inhibition) at 10uM” value is -7.63%.

On to `COc1ccc(N2CC(O)(c3ccc(OC(F)F)cc3)[N+]3=C2CCCC3)cc1.[Br-]` (stereo not shown), for which the “hERG current change (%, negative = inhibition) at 10uM” value is given as -70%.

As for `C=C1CCN(C(C)C(=O)O)S(=O)(=O)c2ccccc21` (stereo not shown), the “hERG current change (%, negative = inhibition) at 10uM” value stood at 14.1%.

`COc1ccc(NC(=O)CCNS(=O)(=O)c2ccc(Br)s2)cc1`: the “hERG current change (%, negative = inhibition) at 10uM” value is listed as -10.1%.

Consider `CC(C)(C)C(=O)N1CCN(c2ncccc2C(F)(F)F)CC1`, for which the “hERG current change (%, negative = inhibition) at 10uM” value came to 1.88%.

For the compound `COc1cccc(N2CCN(Cc3cccc(Cl)c3)CC2)c1`, the “hERG current change (%, negative = inhibition) at 10uM” value is listed as -2.96%.

Consider `CCOC(=O)c1c(/N=C/c2c(O)n(-c3ccccc3F)c(=S)[nH]c2=O)sc2c1CCCC2`, for which the “hERG current change (%, negative = inhibition) at 10uM” value was 14.5%.

Take `Cc1ccccc1NC(=O)c1ccc(C)c(S(=O)(=O)N2CCN(C)CC2)c1`: the “hERG current change (%, negative = inhibition) at 10uM” value turned out to be 12.3%.

On to `CNC(=O)O/N=C(\N)Cc1csc2ccccc12`, for which the “hERG current change (%, negative = inhibition) at 10uM” value turned out to be 11.6%.

Turning to `CCn1c(=O)cc(OCC(=O)NC2CCCCC2)c2ccccc21`, the “hERG current change (%, negative = inhibition) at 10uM” value was determined as 15.4%.

Turning to `COCc1ccc(C(=O)Nc2ccccc2C(=O)NCc2cccnc2)cc1`, the “hERG current change (%, negative = inhibition) at 10uM” value was 6.5%.

As for `CCOC(=O)C1CCCCN1Cc1cn(C)nc1-c1ccccc1F` (stereo not shown), the “hERG current change (%, negative = inhibition) at 10uM” value is given as 4.65%.

For the compound `Cc1cc(C(=O)COC(=O)C2CCN(C(=O)c3ccc(Cl)cc3)CC2)c(C)n1CC1CCCO1` (stereo not shown), the “hERG current change (%, negative = inhibition) at 10uM” value is recorded as -15.2%.

For the compound `CCOc1ccc(Cl)cc1CN1CCOCC1.Cl`, the “hERG current change (%, negative = inhibition) at 10uM” value is reported as -1.13%.

On to `CC(C)(O)C#Cc1ccc(CN2CCN(C3CCCCC3)C(CCO)C2)cc1` (stereo not shown), for which the “hERG current change (%, negative = inhibition) at 10uM” value was -11.8%.

With `O=[N+]([O-])c1ccccc1S(=O)(=O)N1CCN(Cc2ccccc2)CC1`, the “hERG current change (%, negative = inhibition) at 10uM” value was -34.6%.

On to `O=C(NCc1ccc(Cl)cc1)C1CCN(S(=O)(=O)c2ccc(N3CCCC3=O)cc2)CC1`, for which the “hERG current change (%, negative = inhibition) at 10uM” value is 10%.

As for `COC(C/C=C\[C@H](O)COCc1ccccc1)OC`, the “hERG current change (%, negative = inhibition) at 10uM” value was determined as 14.7%.

Regarding `O=C(O)C(=O)O.c1ccc(CN2CCN(CCOCCOc3ccc4c(c3)CCC4)CC2)cc1`, the “hERG current change (%, negative = inhibition) at 10uM” value was -5.19%.

With `CC(C)CCOc1ccc(C(CC(N)=O)C(=O)O)cc1` (stereo not shown), the “hERG current change (%, negative = inhibition) at 10uM” value was 22.6%.

As for `O=C(CSc1nc(-c2ccccc2)cc(C(F)(F)F)n1)N1CCOCC1`, the “hERG current change (%, negative = inhibition) at 10uM” value is reported as -11.9%.

With `O=S(=O)(Nc1cccc(-c2ccc(N3CCCCCC3)nn2)c1)c1ccc(C(F)(F)F)cc1`, the “hERG current change (%, negative = inhibition) at 10uM” value is reported as 18.6%.

On to `O=S(=O)(c1ccc(Cl)c(F)c1)N1CCC(c2nc(-c3ccncc3)no2)CC1`, for which the “hERG current change (%, negative = inhibition) at 10uM” value is given as -29.4%.

In the case of `COc1ccc(C(C)=O)cc1COc1cccc2c1OC(C)(C)C2`, the “hERG current change (%, negative = inhibition) at 10uM” value is listed as -2.38%.

As to `O=C(NC(=S)NCc1ccccc1)c1ccc(Br)cc1`, the “hERG current change (%, negative = inhibition) at 10uM” value was 17.3%.

For `Cc1cc(C)n2ncc(/C(N)=N/OC(=O)Nc3ccccc3)c2n1`, the “hERG current change (%, negative = inhibition) at 10uM” value is listed as -14.7%.

For `CCOc1ccccc1NC(=O)CCC(=O)Nc1ccc2nc(N3CCN(C)CC3)cc(C)c2c1`, the “hERG current change (%, negative = inhibition) at 10uM” value is 3.51%.

As to `Cc1cccc(-n2ncc3c2CCCC3NC(=O)C2CCOCC2)c1C` (stereo not shown), the “hERG current change (%, negative = inhibition) at 10uM” value turned out to be 6.59%.

Take `CC(C)CN(C(=O)COC(=O)COc1ccc2ccccc2c1)c1c(N)n(Cc2ccccc2)c(=O)[nH]c1=O`: the “hERG current change (%, negative = inhibition) at 10uM” value was -5.49%.

In the case of `CC1CN(CCOCCSc2ccc(Cl)cc2)CC(C)O1.O=C(O)C(=O)O` (stereo not shown), the “hERG current change (%, negative = inhibition) at 10uM” value was -23.3%.

In the case of `CC(C(=O)Nc1sccc1C(N)=O)N1C(=O)C2CC=CCC2C1=O` (stereo not shown), the “hERG current change (%, negative = inhibition) at 10uM” value is recorded as -2.11%.

For `COc1ccc(-c2ccc(SCC(=O)N3CCOCC3)nn2)cc1`, the “hERG current change (%, negative = inhibition) at 10uM” value was -5.76%.

With `COc1cccc(N2CC(NS(=O)(=O)c3ccc4ccccc4c3)CC2=O)c1` (stereo not shown), the “hERG current change (%, negative = inhibition) at 10uM” value is -4.12%.

As to `Cn1c(=O)c2c(nc(NC3CCCCC3)n2Cc2ccccc2)n(C)c1=O`, the “hERG current change (%, negative = inhibition) at 10uM” value was determined as 14.2%.

With `NC(=O)C1CCN(C(=O)CN(C2CCCCC2)S(=O)(=O)c2ccc(F)cc2)CC1`, the “hERG current change (%, negative = inhibition) at 10uM” value was -13.4%.

As for `Cc1ccc(N2CC(C(=O)NC(C)CCc3ccccc3)CC2=O)cc1` (stereo not shown), the “hERG current change (%, negative = inhibition) at 10uM” value is recorded as -38.9%.

Regarding `O=C(NCc1ccccn1)c1cn(Cc2ccccc2)nn1`, the “hERG current change (%, negative = inhibition) at 10uM” value is recorded as 3.51%.

Regarding `Cc1cccc(C(=O)NNC(=O)c2ccccc2C)c1`, the “hERG current change (%, negative = inhibition) at 10uM” value is listed as -5.22%.

`O=C(NCc1ccccn1)c1ccc(NS(=O)(=O)c2cccc(Cl)c2)cc1`: the “hERG current change (%, negative = inhibition) at 10uM” value is recorded as 7.73%.

With `Cc1ccc(C(=O)OCC(=O)NC2CCCCC2)s1`, the “hERG current change (%, negative = inhibition) at 10uM” value is 20.9%.

As to `Cc1ccc(C)c(NC(=O)COC(=O)c2cccc(S(=O)(=O)N3CCCCC3)c2)c1`, the “hERG current change (%, negative = inhibition) at 10uM” value was 14.6%.

As for `Cc1cc(C)c2c(C)nn(-c3ccccc3)c2n1`, the “hERG current change (%, negative = inhibition) at 10uM” value is on record as 11.3%.

Consider `COc1cc(C(=O)CCN2CCC(c3ccccc3)C2)cc(OC)c1OC.Cl` (stereo not shown), for which the “hERG current change (%, negative = inhibition) at 10uM” value is -31.8%.

Take `O=C(c1cc2ccccc2oc1=O)N(Cc1ccco1)C1CCS(=O)(=O)C1` (stereo not shown): the “hERG current change (%, negative = inhibition) at 10uM” value is reported as -2.57%.

In the case of `CCc1ccc(NC(=O)C2CCN(c3ncnc4c3nc3n4CCCCC3)CC2)cc1`, the “hERG current change (%, negative = inhibition) at 10uM” value is -6.35%.

Take `O=C1c2ccccc2C(=O)c2c1cccc2N1CCN(C/C=C/c2ccccc2)CC1`: the “hERG current change (%, negative = inhibition) at 10uM” value is given as -7.23%.
